In PubChem BioAssay (Tox21):
“And” between values parts separate entries of the source, which are not always exact repeats. Identical values can stand only once. This list was built around the results that the source calls inconclusive (neither active nor inactive); the mix of calls is not that of the screen. For some of these results: A potency beside an inconclusive call is a rough fit, not a confirmed value. The source made the active and inactive calls. Unless noted, calls follow the shape of the dose curve; as a rule, active = well fitted curve in the direction sought with a large enough effect in the repeat runs; inconclusive = weak or mixed curves; inactive = no such curve, though single readings can be large; an effect the other way counts as inactive or inconclusive.

Columns and labels:
[1] = qHTS assay to identify small molecule agonists of H2AX - cell viability counter screen (AID 1224847; calls by dose curve; also: top concentration of the series differs between compounds; % is scaled to controls: 0 for no effect and ±100 for the full control effect; nearly all actives have a fitted effect of over 30% in size)
In short: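 Counter-screen for viability: CellTiter-Glo ATP luminescence read after 3 h compound treatment (15-point titration, 0.76% DMSO final) of CHO-K1 cells at 37C, with 30 min room-temperature reagent incubation.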

[2] = A CellTox Green Cytotoxicity Assay to monitor cytotoxicity in HEK293 cells - 24 hour (AID 1224875); also: % is scaled to controls: 0 for no effect and ±100 for the full control effect; nearly all actives have a fitted effect of over 45% in size
In short: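 HEK293 cells premixed with CellTox Green dye were seeded at 600 cells/well and left 5 h at 37 C/5% CO2 before pin transfer of 23 nL compound in DMSO. Fluorescence from dye bound to dead-cell DNA was read during 40 h treatment.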

[3] = qHTS RealTime-Glo MT Cell Viability Assay in HEK293 cells - 24 hour (AID 1224886); also: top concentration of the series differs between compounds; % is scaled to controls: 0 for no effect and ±100 for the full control effect; nearly all actives have a fitted effect of over 50% in size
In short: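 Reads taken at 0, 8, 16, 24, 32 and 40 h from the same wells. HEK293 cells (600/well) carried RealTime-Glo reagents from seeding, with compound added after a 5 h settle at 37 C.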

[4] = target: Estrogen receptor beta (Homo sapiens) (UniProt Q92731); assay: qHTS assay to identify small molecule agonists of the estrogen receptor beta (ER-beta) signaling pathway (AID 1259377; active = well fitted activation curve with a large enough effect in the signal ratio in the repeat runs, not every such curve was filed as active; inconclusive = weak or mixed curves, or effect the other way; the % refers to the signal ratio; also: % is scaled to controls: 0 for no effect and ±100 for the full control effect); settings: ER-beta-UAS-bla HEK293T, beta-lactamase FRET ratio, 16 h; activation: at 92.4 µM (top of the series) unless noted
UniProt Q92731, sequence (Q92731 whole entry, looked up): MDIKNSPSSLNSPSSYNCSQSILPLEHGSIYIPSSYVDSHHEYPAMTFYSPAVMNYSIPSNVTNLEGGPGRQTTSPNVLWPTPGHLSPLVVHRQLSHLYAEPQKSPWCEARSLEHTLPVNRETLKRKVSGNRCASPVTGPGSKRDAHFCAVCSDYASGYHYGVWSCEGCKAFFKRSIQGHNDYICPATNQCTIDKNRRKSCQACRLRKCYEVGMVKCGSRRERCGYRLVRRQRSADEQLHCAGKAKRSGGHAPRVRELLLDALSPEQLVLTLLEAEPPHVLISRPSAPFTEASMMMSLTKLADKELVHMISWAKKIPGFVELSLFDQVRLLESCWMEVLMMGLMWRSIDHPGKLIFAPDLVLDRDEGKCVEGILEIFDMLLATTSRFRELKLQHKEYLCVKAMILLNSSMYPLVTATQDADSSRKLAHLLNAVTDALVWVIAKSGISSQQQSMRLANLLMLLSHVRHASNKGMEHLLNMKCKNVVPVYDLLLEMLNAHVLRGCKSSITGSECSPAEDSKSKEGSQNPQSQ
In short: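 Ratiometric beta-lactamase FRET read-out came after 2 h substrate loading at room temperature. It followed 16 h compound treatment at 37C of GripTite HEK293T cells carrying a UAS-bla reporter, plated in 2% charcoal-stripped FBS medium.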

[5] = qHTS assay to identify small molecule agonists of the androgen receptor (AR) signaling pathway in the presence of an antagonist - cell viability counter screen (AID 1259379); also: potency is read from the fitted curve at half-maximal effect; nearly all actives have a fitted effect of over 25% in size
In short: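 MDA-kb2 human breast carcinoma cells (stable MMTV-luciferase, AR/GR responsive) were seeded 3,000 cells/well, pre-incubated 5 hr at 37C without CO2, then given 3.0uM nilutamide and compounds at 15 concentrations for 16 hr. Viability was read by CellTiter-Fluor fluorescence.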

[6] = qHTS assay to identify small molecule agonists of the estrogen receptor beta (ER-beta) signaling pathway - cell viability counter screen (AID 1259380); also: potency is read from the fitted curve at half-maximal effect; nearly all actives have a fitted effect of over 30% in size
In short: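 ER-beta-UAS-bla HEK293T cells in medium with 2% charcoal-stripped FBS were preincubated 6 hr at 37C, dosed with compound in DMSO for 16 hr, then after the bla read, CellTiter-Glo was added for 30 min at room temperature; luminescence recorded.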

[7] = qHTS assay to identify small molecule agonists of the estrogen receptor alpha (ER-alpha) signaling pathway in the presence of an antagonist - cell viability counter screen (AID 1259386);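 also: potency is read from the fitted curve at half-maximal effect; cells exposed to compounds for 22 h at 37 °C before the viability read; nearly all actives have a fitted effect of over 30% in size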
In short: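 VM7Luc4E2 cells (endogenous full-length ER-alpha, 4×ERE-luciferase) were held 5 days in phenol red-free medium with 10% charcoal-stripped FBS, plated, then given 10.0nM ICI-182,780 and compounds at 15 concentrations for 22hr at 37C; viability read by CellTiter-Fluor fluorescence.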

[8] = target: Progesterone receptor (Homo sapiens) (UniProt P06401); assay: qHTS assay to identify small molecule agonists of the progesterone receptor (PR) signaling pathway (AID 1346784; calls by dose curve; also: % is scaled to controls: 0 for no effect and ±100 for the full control effect; nearly all actives have a fitted effect of over 30% in size); settings: PR-UAS-bla HEK293T, beta-lactamase FRET ratio, 16 h; activation: at 92.4 µM (top of the series) unless noted
UniProt P06401, sequence (P06401 whole entry, looked up): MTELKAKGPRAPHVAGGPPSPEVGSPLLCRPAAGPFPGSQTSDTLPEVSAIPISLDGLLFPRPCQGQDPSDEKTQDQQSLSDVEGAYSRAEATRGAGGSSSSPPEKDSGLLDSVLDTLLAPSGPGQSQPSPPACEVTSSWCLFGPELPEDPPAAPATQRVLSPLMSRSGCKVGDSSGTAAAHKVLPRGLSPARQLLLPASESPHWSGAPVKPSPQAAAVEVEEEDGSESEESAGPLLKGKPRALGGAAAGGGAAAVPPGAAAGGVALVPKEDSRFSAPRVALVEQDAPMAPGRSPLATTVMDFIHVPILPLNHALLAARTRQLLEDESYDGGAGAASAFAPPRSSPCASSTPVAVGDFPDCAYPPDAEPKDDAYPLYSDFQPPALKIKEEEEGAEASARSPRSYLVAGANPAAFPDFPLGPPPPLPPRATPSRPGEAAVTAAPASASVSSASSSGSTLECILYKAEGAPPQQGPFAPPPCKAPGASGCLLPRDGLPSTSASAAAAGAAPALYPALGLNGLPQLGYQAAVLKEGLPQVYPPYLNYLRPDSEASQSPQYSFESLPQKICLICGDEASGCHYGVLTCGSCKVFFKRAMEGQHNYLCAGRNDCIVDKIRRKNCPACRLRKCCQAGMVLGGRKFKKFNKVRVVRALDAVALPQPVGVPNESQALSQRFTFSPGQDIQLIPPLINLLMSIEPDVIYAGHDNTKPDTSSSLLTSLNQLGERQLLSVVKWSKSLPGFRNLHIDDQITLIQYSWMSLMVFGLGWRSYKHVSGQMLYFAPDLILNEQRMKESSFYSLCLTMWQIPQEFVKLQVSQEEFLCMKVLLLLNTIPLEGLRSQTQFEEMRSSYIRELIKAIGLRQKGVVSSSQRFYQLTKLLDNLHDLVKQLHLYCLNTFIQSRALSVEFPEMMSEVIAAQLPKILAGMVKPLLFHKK
In short: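 Agonist qHTS: compounds pinned onto 3,000 PR-UAS-bla HEK 293T cells per well in charcoal-stripped serum medium, 16hr at 37C, then beta-lactamase activity measured by LiveBLAzer FRET fluorescence after 2 hours at room temperature.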

[9] = target: Progesterone receptor (Homo sapiens) (UniProt P06401); assay: qHTS assay to identify small molecule antagonists of the progesterone receptor (PR) signaling pathway (AID 1346795; active = well fitted inhibition curve with a large enough effect in the signal ratio in the repeat runs, not every such curve was filed as active; inconclusive = weak or mixed curves; the % refers to the signal ratio; also: % is scaled to controls: 0 for no effect and ±100 for the full control effect); settings: PR-UAS-bla HEK293T, beta-lactamase FRET ratio, 16 h; activity change, negative = inhibition: at 92.4 µM (top of the series) unless noted
In short: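 Antagonist mode with agonist R5020 at 1 nM final and 16 hr incubation at 37C. Reporter was beta-lactamase driven by UAS in HEK293T (PR-UAS-bla), 2% charcoal-stripped serum; signal from LiveBLAzer FRET substrate, 2 hr at room temperature.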

[10] = qHTS assay to identify small molecule antagonists of the progesterone receptor (PR) signaling pathway - cell viability counter screen (AID 1346798); also: % is scaled to controls: 0 for no effect and ±100 for the full control effect; nearly all actives have a fitted effect of over 50% in size
In short: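 Cytotoxicity read as CellTiter-Glo luminescence (30 min, room temperature) in the same wells as the beta-lactamase readout. HEK293T PR-UAS-bla cells in charcoal-stripped 2% FBS received compound and R5020, then 16 h at 37C, 5% CO2.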

[11] = qHTS assay to identify small molecule agonists of the progesterone receptor (PR) signaling pathway - cell viability counter screen (AID 1346799; calls by dose curve; also: % is scaled to controls: 0 for no effect and ±100 for the full control effect; nearly all actives have a fitted effect of over 45% in size)
In short: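 Cytotoxicity measured by CellTiter-Glo luminescence (30 min, RT) in the same wells as the PR beta-lactamase agonist read. Those HEK293T cells had 16 h compound treatment at 37 C in 2% charcoal-stripped FBS medium.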

[12] = Caspase-3/7 induction in CHO-K1 cells by small molecules, qHTS cell viability counter screen (AID 1346979); also: potency is read from the fitted curve at half-maximal effect; nearly all actives have a fitted effect of over 35% in size
In short: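 Cytotoxicity counter screen: CellTiter-Fluor added to compound-treated wild-type CHO-K1 cells at 16 h (37C, 5% CO2), fluorescence measured 1 h later; same wells as caspase-3/7 measurement.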

[13] = Caspase-3/7 induction in HepG2 cells by small molecules, qHTS cell viability counter screen (AID 1346981)
In short: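 Wild-type HepG2 cells (2,000/well) were allowed to settle for 5 hr at 37 C, 5% CO2, then dosed with compounds in DMSO by pin transfer. After 16 hr at 37 C, CellTiter-Fluor was added and fluorescence read 1 hr later.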

[14] = target: Nuclear receptor subfamily 1 group I member 2 (Homo sapiens) (UniProt O75469); assay: Human pregnane X receptor (PXR) small molecule agonists, qHTS assay (AID 1346982); also: potency is read from the fitted curve at half-maximal effect; nearly all actives have a fitted effect of over 35% in size
UniProt O75469, sequence (O75469 whole entry, looked up): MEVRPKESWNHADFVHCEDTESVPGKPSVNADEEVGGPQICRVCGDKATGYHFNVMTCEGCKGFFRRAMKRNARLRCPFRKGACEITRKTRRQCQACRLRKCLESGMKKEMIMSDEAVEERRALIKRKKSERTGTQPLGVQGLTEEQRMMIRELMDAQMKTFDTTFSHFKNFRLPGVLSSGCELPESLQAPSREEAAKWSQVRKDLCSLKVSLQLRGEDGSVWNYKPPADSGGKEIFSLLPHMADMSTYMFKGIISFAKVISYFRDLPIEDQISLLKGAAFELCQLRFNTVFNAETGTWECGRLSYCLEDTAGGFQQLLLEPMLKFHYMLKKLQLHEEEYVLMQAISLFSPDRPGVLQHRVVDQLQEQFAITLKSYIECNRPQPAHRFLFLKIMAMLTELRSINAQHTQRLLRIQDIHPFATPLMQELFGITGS
In short: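 PXR-Luc HepG2 cells (CYP3A4 promoter-driven luciferase) were seeded in medium with 5% charcoal-stripped FBS, left 5 hr at 37 C, then exposed to compounds in DMSO for 24 hr. Luminescence was read after ONE-Glo addition.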

[15] = target: Cytochrome P450 2D6 (Homo sapiens) (UniProt P10635); assay: Cytochrome P450 Family 2 Subfamily D Member 6 (CYP2D6) small molecule antagonists: luciferase reporter qHTS assay (AID 1671196); also: % is scaled to controls: 0 for no effect and ±100 for the full control effect; nearly all actives have a fitted effect of over 50% in size
UniProt P10635, sequence (P10635 whole entry, looked up): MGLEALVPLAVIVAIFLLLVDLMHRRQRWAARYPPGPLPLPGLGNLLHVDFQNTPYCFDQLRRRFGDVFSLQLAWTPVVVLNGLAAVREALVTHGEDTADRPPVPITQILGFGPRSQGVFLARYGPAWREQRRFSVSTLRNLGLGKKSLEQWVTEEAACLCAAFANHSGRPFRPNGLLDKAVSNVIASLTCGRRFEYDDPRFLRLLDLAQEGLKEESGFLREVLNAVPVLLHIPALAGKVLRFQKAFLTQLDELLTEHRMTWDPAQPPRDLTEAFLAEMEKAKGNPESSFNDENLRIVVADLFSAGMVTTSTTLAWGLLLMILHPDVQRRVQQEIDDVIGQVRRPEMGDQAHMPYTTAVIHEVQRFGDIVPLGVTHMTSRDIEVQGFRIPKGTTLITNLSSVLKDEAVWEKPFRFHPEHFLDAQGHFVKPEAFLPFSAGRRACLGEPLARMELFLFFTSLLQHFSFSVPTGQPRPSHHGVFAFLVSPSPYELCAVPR
In short: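 CYP2D6 enzyme–substrate mix was held with compound for 10 min at room temperature, then NADPH regeneration solution was added and the reaction ran 1 h at room temperature. Luciferin product was detected by luminescence after 20 min with detection reagent.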

[16] = target: Cytochrome P450 3A4 (Homo sapiens) (UniProt P08684); assay: Cytochrome P450 Family 3 Subfamily A Member 4 (CYP3A4) small molecule antagonists: luciferase reporter qHTS assay (AID 1671201); also: potency is read from the fitted curve at half-maximal effect; nearly all actives have a fitted effect of over 50% in size
UniProt P08684, sequence (P08684 whole entry, looked up): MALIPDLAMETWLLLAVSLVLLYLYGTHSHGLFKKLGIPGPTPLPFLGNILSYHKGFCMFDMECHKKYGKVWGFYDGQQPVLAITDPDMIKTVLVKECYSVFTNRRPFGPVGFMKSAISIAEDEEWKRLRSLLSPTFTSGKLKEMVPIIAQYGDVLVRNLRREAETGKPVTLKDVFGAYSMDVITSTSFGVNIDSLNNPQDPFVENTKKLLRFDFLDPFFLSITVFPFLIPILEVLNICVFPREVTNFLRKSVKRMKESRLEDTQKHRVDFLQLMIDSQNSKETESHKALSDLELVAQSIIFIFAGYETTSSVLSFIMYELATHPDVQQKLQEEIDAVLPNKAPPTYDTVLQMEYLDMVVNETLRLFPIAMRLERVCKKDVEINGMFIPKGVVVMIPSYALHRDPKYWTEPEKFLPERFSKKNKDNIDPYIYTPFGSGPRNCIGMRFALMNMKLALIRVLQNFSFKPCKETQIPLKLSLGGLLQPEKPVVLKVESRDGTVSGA
In short: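 Recombinant human CYP3A4 converts a proluciferin substrate to luciferin over 1 h at room temperature after NADPH regeneration solution is added (compound preincubated 10 min); detection reagent stops reaction, luminescence read 20 min later as relative units.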
Tags tell the direction and shape of the fitted curve.

COc1ccc([N+](=O)[O-])cc1N
inconclusive: Potency [5] 48.8 µM [cytotoxic, partial curve, poor fit] | Potency [6] 15.4 µM [cytotoxic, single point] | Potency [7] 77.3 µM [cytotoxic, partial curve, poor fit] and 61.1 µM [cytotoxic, partial curve] | activity change, negative = inhibition [9] -8% | Potency [12] 54.5 µM [cytotoxic, partial curve, poor fit] | Potency [13] 61.4 µM [cytotoxic, partial curve, poor fit] and 68.6 µM [cytotoxic, single point] | Potency [14] 61.4 µM [activator, partial curve] and 77 µM [activator, partial curve, poor fit]
inactive: Potency [1] | Potency [2] | Potency [3] | Potency [4] | Potency [8] | Potency [10] | Potency [11] | Potency [15]
active: Potency [16] 35.7 µM and 35.6 µM
